The results in this text go back to PubChem BioAssay (NCI).

The structures appear in SMILES notation.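 Cultured in 96-well plates, cells were exposed to test compound for 48 hours across five concentrations. Here, GI50 denotes the concentration required for 50% inhibition of growth. The concentration for full growth arrest is given as TGI.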

Some test systems named below: BT-549 breast; HS 578T breast; T-47D breast; SK-MEL-5 melanoma; MDA-MB-231 breast; MDA-MB-435; M14 melanoma; DU-145 prostate.
What all share (experiment): DTP human tumour cell line panel, 48 h

Regarding `CN[C@@H]1C[C@H]2O[C@@](C)([C@@H]1OC)n1c3ccccc3c3c4c(c5c6ccccc6n2c5c31)C(=O)NC4`, the GI50 (in general, the concentration that inhibits growth by half) in the assay on BT-549 breast was below 10 nM; in the assay on HS 578T breast, below 10 nM; in the assay on T-47D breast it was 20.7 nM; in the assay on SK-MEL-5 melanoma, 28.2 nM; with MDA-MB-231 breast it was below 10 nM; in the assay on MDA-MB-435, 30.8 nM. For the same compound, the GI50 in the assay with DU-145 prostate is below 10 nM. For the same compound, the TGI (commonly the concentration at which net growth stops) in the assay with BT-549 breast worked out at 38.3 nM; with HS 578T breast, 2460 nM; with T-47D breast, 339 nM; with SK-MEL-5 melanoma, 203 nM; with MDA-MB-231 breast it was 201 nM; in the assay with MDA-MB-435, 231 nM. Further, the values for the TGI with M14 melanoma and in the assay on DU-145 prostate were 1470 nM and 931 nM, respectively.
